Measurements from the supplement of paper PMC11417369.
This is one part of the list.

system: PfAP2-HC AP2 domain (GST-tagged); experiment: gcPBM binding intensity (ln(normalized median fluorescence intensity)); higher = stronger DNA binding
In short: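 DNA-binding domains from P. falciparum, fused to GST and produced in E. coli, were put on an Agilent 4 × 180k double-stranded probe array for 1 h in 1× PBS holding 1% milk, 0.2 mg/ml BSA, 0.5% salmon testes DNA and 0.03% Triton X-100. Probes were primer-extended, 36 bp long and drawn from intergenic genomic regions, with negative controls included. After Alexa488 anti-GST antibody detection and a 488 nm scan, binding intensity was set as the highest Masliner-normalised natural-log median intensity across replicate spots of either probe orientation.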

Sequence | gcPBM binding intensity (ln)
ATATCTACTATACAACTGAGTGTAGAAAAATTAAAC [CACACA_negctrl_site1211] | 9.76
ACTTTGCTCTACAATGCATGCTCATTTAACAAGGCA [TGCATGCA_site676] | 9.51
TATATTAAATGAAACAAACACACATAGCCTTTAAAT [CACACA_site1559] | 9.91
TCAATTTTACTTGTTTGTACATAAAATAATAAGGTT [XGTACX_site3732] | 9.47
AAGAAAAAAAAAATTACACACTGCGGACATACACAA [CACACA_site4838] | 9.98
ATATTTTGTTTTTGTTCTTTTTTTTTCTTTTTTTTT [CACACA_negctrl_site1342] | 9.93
ATATATATATATATATGTACATATTTTTATTTATAC [XGTACX_site2858] | 9.67
TATGTAATGTTTACAACACACAAATTATAAATACAA [CACACA_site1771] | 9.73
TATTTATATGTATATACATGCACATATATATGAAAC [TGCATGCA_site1005] | 9.63
CTATTTTATATGTGCACACATATACTCAGACAAATA [CACACA_site4761] | 9.95
ACCTATATACTAAATGCACACTTATATATTTATATA [CACACA_site5371] | 9.88
AAAAAAAAAAAAAAATGTACATATATATAAATATAT [XGTACX_site6768] | 9.53
TGTATAAATATATGCACACATATATATATTTATATA [CACACA_site3473] | 9.63
TCAATAAATGAATATGCATGCACGCTCTTTAGAGAT [TGCATGCA_site553] | 9.66
GAGAAAAAAAAAAAAAAACACACGGTACATTCAAAG [CACACA_site1767] | 9.71
TAATTCGCATTTTATACACACATTCGAACCTTTTTT [CACACA_site7549] | 10.2
AAATTAATACATTATTGTACTTTTCATGTGCAGAAA [XGTACX_site8284] | 9.46
CATATTACATTAAATTGTACATATATATATATATAT [XGTACX_site3295] | 9.76
CGGATGAATATATATGCACACATCTTTTGTAAAAAT [CACACA_site3190] | 9.76

Sequence | gcPBM binding intensity (ln)
AAAAATTAAAAGAAAATACACACCTGTGGGTGCTTA [CACACA_site1988] | 9.57
TTATATAGGCAGATGGTGCATCTATTTATAAGCAAC | 9.51
TATTTTTTTTGTTAGGTGCATTTACATTTATTTTTA | 9.74
TGTATGTATTTTCAATGTACATAAAAAAAAAAAAAA [XGTACX_site4397] | 9.4
AAAAAAAAAAGTTCTACACACACAAAAAAATATTTT [CACACA_site8725] | 10.1
ATATGAGAGAATAAAACACACAAAAAAAAAAAAAAA [CACACA_site2865] | 9.46
TAATAATCAAGTTAACGTACAAAATCATCTATAGAA [XGTACX_site5921] | 9.64
GTAGCCTTTCTTTATAAAGGCAAACAAACAAAAAAT [CACACA_negctrl_site1491] | 9.36
TTTTTAAAACATATCACACATATATATATATATATA [CACACA_site5991] | 9.52
TATTTTTATAAAAATCGTACAAGTGATCCAATTTTT [XGTACX_site4402] | 9.54
CCGTATTCAAAAAGGAGTACACAATTATATGTTATA [XGTACX_site641] | 9.43
TATAATATAATTAAAAGTACTTAAAAAAGAATGAAA [XGTACX_site1157] | 9.71
TGTTTATATAATATTCTACACACCAACAACAAACAT [CACACA_site8087] | 10.4
CGCGCACCCAGACACACACACACACCGATATATATA [CACACA_site8687] | 10.9
AAAAAAAAAAAAAGTACACACTTATAAAATATTATG [CACACA_site4639] | 9.69
TAAATTATCTTTTTATGTACTTATTTTTATTATTTT [XGTACX_site3158] | 9.73
TATTTTCAACATATTTGTACATATTTTATATTTTAA [XGTACX_site101] | 9.71
GTTATACTCATATATACACACATATGTAAATATATA [CACACA_site5764] | 9.75
ATATAAATAATGTTGACACACACAATAATCTTATTA [CACACA_site9197] | 9.99

Sequence | gcPBM binding intensity (ln)
AAAATATGGATTCATGATATTAAATTTAATTTAATG [XGTACX_negctrl_site214] | 9.29
ATTATATTAGGTAATCAGTTAAATGTTTCCTTTTTA [CACACA_negctrl_site1229] | 9.53
ATACGAAAAAAAAAAAGTACACAAAAATATCTACAT [XGTACX_site2051] | 9.78
TTTATATAATTTTGTGGTACTTATGTGTGTATATTA [XGTACX_site706] | 10
ATTTATTATATATACACACATACATATATATATATA [CACACA_site2159] | 9.82
ATAACAAAATAAAACACACACACAAATGTACTTATA [CACACA_site8768] | 10.5
TGCTTTTATTTCTTCACACATATGTAAAAAAAAGAA [CACACA_site5906] | 9.33
AAAAAATTCTGGTACTGTACACATTTTTTTAAATTT [XGTACX_site6904] | 9.63
TGCATACTAGCCAATTGTACATAATTTTATTTTAAA [XGTACX_site513] | 9.43
ATTATGATTTTATAGAACTGAACATTTACATTAAAT [GTGCAC_negctrl_site192] | 9.55
AAAATAAATCTGAATGGGGTATAATATATCTTTGTT [CACACA_negctrl_site744] | 9.68
AAAAGGAACAGACACACACACATATATATATATATA [CACACA_site3587] | 10.8
CTCAAATAATTTTTTACACACATTATTTGAAATAAG [CACACA_site1290] | 9.57
ATGCTTTTATAAATAATTAAAAAAAAAAAAAAAAAA [TGCATGCA_negctrl_site533] | 8.86
TTTTTTTTTAATATTTGTACACAACATGAAACATTT [XGTACX_site473] | 9.73
GTAATATATACAAAATGTACAAAACAATAACATGAT [XGTACX_site8575] | 10
ATCCAAACAAATAAAACATGCATAATATATATATAT [TGCATGCA_site766] | 9.73
TAAAATATTACGTGTACACATAAATAAAAATAAAAA [CACACA_site5066] | 9.95
TTTTATATTCCACAAAAAATTATATAATAATAGAAC [CACACA_negctrl_site1741] | 9.28
